Laboratory results taken from a collection of fitness landscapes (doi:10.1126/science.1257360).
This is one part of the list.

B1: PhoQ; a variant is named by its letters at X, in order, P23837 (parent)
chain: MKKLLRLFFPLSLRVRFLLATAAVVLVLSLAYGMVALIGYSVSFDKTTFRLLRGESNLFYTLAKWENNKLHVELPENIDKQSPTMTLIYDENGQLLWAQRDVPWLMKMIQPDWLKSNGFHEIEADVNDTSLLLSGDHSIQQQLQEVREDDDDAEMTHSVAVNVYPATSRMPKLTIVVVDTIPVELKSSYMVWSWFIYVLSANLLLVIPLLWVAAWWSLRPIEALAKEVRELEEHNRELLNPATTRELTSLVRNLNRLLKSERERYDKYRTTLTDLTHSLKTPLXXLQXXLRSLRSEKMSVSDAEPVMLEQISRISQQIGYYLHRASMRGGTLLSRELHPVAPLLDNLTSALNKVYQRKGVNISLDISPEISFVGEQNDFVEVMGNVLDNACKYCLEFVEISARQTDEHLYIVVEDDGPGIPLSKREVIFDRGQRVDTLRPGQGVGLAVAREITEQYEGKIVAGESMLGGARMEVIFGRQHSAPKDE

Variants of: B1
Assay: enrichment ratio after two sorts for PhoP signalling (ratio (wild type AVST 3.29)); higher = more functional
Details: with PhoP (E. coli)

Variant	enrichment ratio
SGMC	12.8
MFLH	≤ 0.25
QNEW	≤ 0.25
VSTT	≤ 0.25
SIVG	9.05
HPSH	≤ 0.25
VQQF	≤ 0.25
QAEW	≤ 0.25
PMHH	≤ 0.25
HHVL	≤ 0.25
TPPA	≤ 0.25
TLPI	≤ 0.25
VLRI	≤ 0.25
FDAC	≤ 0.25
TGFS	1.93
TPRY	≤ 0.25
SRSM	0.977
MLYK	≤ 0.25
FKTI	≤ 0.25
KSCM	≤ 0.25
TTYN	12.5
PVMC	≤ 0.25
RRHA	≤ 0.25
WNGL	≤ 0.25

Variant	enrichment ratio
GFVM	≤ 0.25
CPSS	≤ 0.25
REVS	≤ 0.25
VASV	0.45
VHAN	≤ 0.25
IGSK	≤ 0.25
EQHT	≤ 0.25
AGAT	11.3
AAVH	0.944
NMRR	≤ 0.25
GCMQ	6.31
QGDH	≤ 0.25
HKRI	≤ 0.25
YWYR	≤ 0.25
NWLI	≤ 0.25
YNDH	≤ 0.25
NHHR	≤ 0.25
RQVV	≤ 0.25
HLHI	≤ 0.25
IITL	≤ 0.25
DGTI	≤ 0.25
EPPY	≤ 0.25
SRCW	≤ 0.25
TKII	5.85

Variant	enrichment ratio
YGKF	≤ 0.25
QICV	≤ 0.25
GRDQ	≤ 0.25
MYVG	≤ 0.25
NQSA	≤ 0.25
DYYC	≤ 0.25
NGLE	≤ 0.25
YNFT	≤ 0.25
IDNK	≤ 0.25
IQQP	≤ 0.25
QCML	≤ 0.25
ELGE	≤ 0.25
DVLF	≤ 0.25
KSSM	≤ 0.25
AHKS	≤ 0.25
WQYM	≤ 0.25
WYKQ	≤ 0.25
NHDF	≤ 0.25
IKKE	≤ 0.25
DAMY	≤ 0.25
FNKV	≤ 0.25
RMRH	≤ 0.25
ERVA	≤ 0.25
VKKV	≤ 0.25

Variant	enrichment ratio
NYWT	≤ 0.25
QAKR	≤ 0.25
GTSH	0.482
ISYE	≤ 0.25
EPWL	≤ 0.25
SWGL	≤ 0.25
VWAV	≤ 0.25
QGIV	≤ 0.25
MSLR	≤ 0.25
LAAM	≤ 0.25
SNYP	0.274
WAIS	≤ 0.25
WPPS	≤ 0.25
GGYR	≤ 0.25
GNYD	≤ 0.25
WKTT	≤ 0.25
WSYF	≤ 0.25
LDRA	≤ 0.25
EKNV	≤ 0.25
LTVL	≤ 0.25
QCDL	3.98
SIAP	≤ 0.25
DPYK	≤ 0.25
YFIW	≤ 0.25

Variant	enrichment ratio
QNRP	≤ 0.25
PCYV	≤ 0.25
GPIR	≤ 0.25
FVIN	≤ 0.25
FYGI	≤ 0.25
GMSM	5.43
PEES	≤ 0.25
AYDS	≤ 0.25
TIHM	≤ 0.25
LDQC	≤ 0.25
MLDN	≤ 0.25
LYVP	≤ 0.25
YGGC	≤ 0.25
MPNF	≤ 0.25
RQNI	≤ 0.25
ANCP	≤ 0.25
MDEH	≤ 0.25
DWGQ	≤ 0.25
RLPH	≤ 0.25
RTMH	≤ 0.25
DKAH	≤ 0.25
HLCR	≤ 0.25
RYDI	≤ 0.25
HCGW	≤ 0.25

Variant	enrichment ratio
MMTT	≤ 0.25
DLDL	≤ 0.25
VTND	≤ 0.25
WYPD	≤ 0.25
QGVL	2.7
FWAS	≤ 0.25
TTIV	0.549
TYHS	≤ 0.25
EPPA	≤ 0.25
GQPW	≤ 0.25
AYLN	≤ 0.25
GKHM	≤ 0.25
QRLT	≤ 0.25
VSEN	≤ 0.25
QAWM	10.8
QNRN	≤ 0.25
NYFW	≤ 0.25
ILEY	≤ 0.25
QHVR	≤ 0.25
KAQP	≤ 0.25
PDGG	≤ 0.25
EADW	≤ 0.25
DDAP	≤ 0.25
WFGK	≤ 0.25

Variant	enrichment ratio
RREH	≤ 0.25
IPSP	≤ 0.25
FTMF	9.72
SADN	≤ 0.25
TVVF	≤ 0.25
MQGS	≤ 0.25
WYHQ	≤ 0.25
SLVE	≤ 0.25
VPSM	≤ 0.25
TGTH	2.57
EEVQ	≤ 0.25
DTGD	≤ 0.25
PVNI	≤ 0.25
HNKY	≤ 0.25
IFTY	≤ 0.25
FHDI	≤ 0.25
QMLF	≤ 0.25
PYMP	≤ 0.25
CDCR	≤ 0.25
MTNR	≤ 0.25
SIET	4.74
FNVD	≤ 0.25
FHIY	≤ 0.25
NFYR	≤ 0.25

Variant	enrichment ratio
YEGG	≤ 0.25
KIKH	≤ 0.25
SSPP	≤ 0.25
RRVM	≤ 0.25
SKHF	≤ 0.25
HYTW	≤ 0.25
PPGA	≤ 0.25
SCSM	14.5
MYAL	≤ 0.25
AYPH	≤ 0.25
SVIG	8.65
WKYE	≤ 0.25
SSLI	18.9
VPLI	0.303
KQNK	≤ 0.25
HDAK	≤ 0.25
NDMD	≤ 0.25
GLCE	2.44
GHDN	≤ 0.25
HKIY	≤ 0.25
EMHA	≤ 0.25
TLAV	11.9
WNYP	≤ 0.25
VVWI	≤ 0.25

Variant	enrichment ratio
ADTM	≤ 0.25
VYGF	≤ 0.25
ALYR	≤ 0.25
HRNY	≤ 0.25
VASL	1.74
DGQT	≤ 0.25
INMM	7.98
LQCY	≤ 0.25
KMNV	≤ 0.25
VSFA	≤ 0.25
DAFT	≤ 0.25
EKNR	≤ 0.25
WPQL	≤ 0.25
TNND	≤ 0.25
HWCQ	≤ 0.25
INVH	≤ 0.25
QRQL	≤ 0.25
SYVY	≤ 0.25
RSFC	≤ 0.25
GTSK	≤ 0.25
HGWD	≤ 0.25
TYFS	≤ 0.25
KTDV	≤ 0.25
WHPH	≤ 0.25

Variant	enrichment ratio
YQWT	≤ 0.25
PNIF	≤ 0.25
HGQF	≤ 0.25
NWVL	≤ 0.25
TRCI	5.39
HLPK	≤ 0.25
YDYT	≤ 0.25
DVVV	≤ 0.25
EHDF	≤ 0.25
PCFI	≤ 0.25
WHSQ	≤ 0.25
IACY	≤ 0.25
QLTY	≤ 0.25
VFSF	≤ 0.25
GNFV	≤ 0.25
ATSL	5.96
TVVW	≤ 0.25
NWYM	≤ 0.25
LAIY	≤ 0.25
ECLE	≤ 0.25
FDPT	≤ 0.25
AVMA	5.91
CLMY	≤ 0.25
TCTS	17.5

Variant	enrichment ratio
VVKD	≤ 0.25
KFLC	≤ 0.25
SMYN	≤ 0.25
YTTR	0.294
IGDP	≤ 0.25
KEGY	≤ 0.25
GQIA	≤ 0.25
DEAM	≤ 0.25
VKHK	≤ 0.25
ETCD	≤ 0.25
QEKS	≤ 0.25
HNYW	≤ 0.25
DKYQ	≤ 0.25
VQCQ	≤ 0.25
EYGQ	≤ 0.25
EYGK	≤ 0.25
QKLF	≤ 0.25
NMTT	≤ 0.25
WGAM	≤ 0.25
IKYK	≤ 0.25
KCSV	≤ 0.25
DLFA	≤ 0.25
YFYW	≤ 0.25
DRPM	≤ 0.25

Variant	enrichment ratio
QILL	≤ 0.25
FMHG	≤ 0.25
SQEE	≤ 0.25
AGCC	16.1
IPHP	≤ 0.25
TLAY	≤ 0.25
KCAG	≤ 0.25
QLVF	≤ 0.25
GIQF	≤ 0.25
HPCR	≤ 0.25
WAPK	≤ 0.25
MEAW	≤ 0.25
YDWD	≤ 0.25
GPTD	≤ 0.25
TAEK	≤ 0.25
TKSP	≤ 0.25
LRAV	≤ 0.25
LPQP	≤ 0.25
IPIA	≤ 0.25
FDHA	≤ 0.25
VSWG	≤ 0.25
NIPK	≤ 0.25
YVSG	0.371
HLSD	≤ 0.25

Variant	enrichment ratio
HLPD	≤ 0.25
NWCI	≤ 0.25
QVYK	9.39
SWPL	≤ 0.25
SQQH	≤ 0.25
GEAS	9.56
TDGT	3.27
LLQP	≤ 0.25
EPSR	≤ 0.25
QPQF	≤ 0.25
PDFC	≤ 0.25
RLVS	≤ 0.25
QPPL	≤ 0.25
IGMG	≤ 0.25
QAHQ	≤ 0.25
LWPY	≤ 0.25
QGYG	3.64
VFSC	≤ 0.25
